{"source": "PubChem BioAssay AID1745849", "about": "(National Center for Advancing Translational Sciences (NCATS), 2022)", "note": "About 320 (15%) of roughly 2,100 compounds were called active. Inconclusive results, whose numbers are uncertain, are shown with a selection of clear calls. Calls come from the whole dose curve; as a rule, active = well fitted cell-killing curve with a large enough effect; inconclusive = small, poorly fitted or top-dose-only effect, or effect the other way; inactive = flat fitted curve, though single readings scatter. A potency beside an inconclusive call is a rough fit, not a confirmed value. % is set by controls: 0 for no effect and ±100 for the full control effect; potency is the fitted concentration of half-maximal effect; tags give direction and shape of the fitted curve."}
{"assay": "Viability Counterscreen for CMV-Luciferase Assay of Inhibitors of ATXN expression; note: nearly all actives have a fitted effect of over 55% in size", "details": "HEK-293 CMV-luciferase cells viability, protease fluorescence, 24 h; series mostly up to 57.5 µM", "how_it_was_run": "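Compounds are tested in a dilution series on HEK-293 cells carrying the CMV-driven luciferase. After a 24 hr incubation, a protease substrate (25 uM final, 30 min) gives the viability fluorescence, and SteadyGlo gives the reporter luminescence.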"}
{"smiles": "O=C1NC2C(=CC(O)C(O)C2O)c2cc3c(cc21)OCO3", "note": "(configuration not stated)", "Potency": "inconclusive: 0.0708 µM [cytotoxic, full curve, poor fit]"}
{"smiles": "C[C@H]1C[C@@H](C)C(=O)[C@@H]([C@H](O)CC2CC(=O)NC(=O)C2)C1", "Potency": "inconclusive: 0.447 µM [cytotoxic, full curve, poor fit]"}
{"smiles": "O=[N+]([O-])c1oc2ccc3ccccc3c2c1CCO", "Potency": "active: 20 µM"}
{"smiles": "NC(Cc1ccc(F)cc1)c1csc(Nc2ccccn2)n1", "note": "(configuration not stated)", "Potency": "inconclusive: 14.1 µM [cytotoxic, partial curve, poor fit]"}
{"smiles": "COc1cccc2c1C(=O)c1c(O)c3c(c(O)c1C2=O)CC(O)(C(C)=NO)CC3OC1CC(N)C(O)C(C)O1", "note": "(configuration not stated)", "Potency": "active: 14.1 µM"}
{"smiles": "CC12CCC3C(CCC4(O)CC(O)CCC34C=NO)C1(O)CCC2C1=COC(=O)C1", "note": "(configuration not stated)", "Potency": "active: 0.891 µM"}
{"smiles": "CC(=NCCc1c[nH]c2ccccc12)c1c(O)n(Cc2ccccc2)c(=O)[nH]c1=O", "Potency": "inactive"}
{"smiles": "O=[N+]([O-])c1ccc(C(c2ccc([N+](=O)[O-])cc2)c2ccc([N+](=O)[O-])cc2)cc1", "Potency": "inconclusive: 28.2 µM [cytotoxic, partial curve, poor fit]"}
{"smiles": "CNCC(O)c1cc(OCc2ccccc2)c(OCc2ccccc2)cc1F", "note": "(configuration not stated)", "Potency": "inconclusive: 31.6 µM [cytotoxic, single point]"}
{"smiles": "NC(=O)c1c(Br)n(C2OC(CO)C(O)C2O)c2ncnc(N)c12", "note": "(configuration not stated)", "Potency": "inconclusive: 3.16 µM [cytotoxic, partial curve, poor fit]"}
{"smiles": "CC(=O)O[C@H]1[C@H]2O[C@]23[C@@H]2CC[C@]4(O)C[C@@H](O)CC[C@]4(C)C2CC[C@]3(C)[C@H]1c1ccc(=O)oc1", "note": "(some centres not stated)", "Potency": "inconclusive: 0.0891 µM [cytotoxic, full curve, poor fit]"}
{"smiles": "CC12CCC(O)CC1CCC1C2CCC2(C)C(C3=CC(=O)OC3)CCC12O", "note": "(configuration not stated)", "Potency": "inconclusive: 0.282 µM [cytotoxic, full curve]"}
{"smiles": "CCC1(OC(=O)CN)C(=O)OCc2c1cc1n(c2=O)Cc2cc3ccccc3nc2-1", "note": "(configuration not stated)", "activity change, negative = cytotoxicity": "inactive: 14.6% [at 11.4 µM]"}
{"smiles": "CCOc1cc(CNCCc2c[nH]c3ccccc23)cc(Cl)c1OC", "Potency": "inconclusive: 20 µM [cytotoxic, single point]"}
{"smiles": "CC(C)CCNC(=O)c1c(N)n(Cc2ccc3c(c2)OCO3)c2nc3ccccc3nc12", "Potency": "inconclusive: 31.6 µM [rising, partial curve]"}
{"smiles": "O=C(NN=Cc1ccc(N(CCCl)CCCl)cc1)c1cc(=O)[nH]c(=O)[nH]1", "Potency": "inactive"}
{"smiles": "COc1ccc(O)c2c(=O)c3c(OC)cc4c(c3oc12)C1C=COC1O4", "note": "(configuration not stated)", "Potency": "inconclusive: 15.8 µM [cytotoxic, partial curve]"}
